Consider 44 molecules from publication PMC4336329 (PLoS ONE, 2015).

Structures are written as SMILES. The whole screen tested about 310,000 compounds, of which about 2,200 (0.71%) showed an effect of 50% or more. The effect is printed as a negative number. The list shows a part of the results.

This assay deals with human ether-à-go-go-related gene (hERG) potassium channel (human, UniProt Q12809). As to the kind of experiment: primary screen, population patch clamp on CHO cells stably expressing hERG.
Chain of human ether-à-go-go-related gene (hERG) potassium channel (Q12809 whole entry, looked up): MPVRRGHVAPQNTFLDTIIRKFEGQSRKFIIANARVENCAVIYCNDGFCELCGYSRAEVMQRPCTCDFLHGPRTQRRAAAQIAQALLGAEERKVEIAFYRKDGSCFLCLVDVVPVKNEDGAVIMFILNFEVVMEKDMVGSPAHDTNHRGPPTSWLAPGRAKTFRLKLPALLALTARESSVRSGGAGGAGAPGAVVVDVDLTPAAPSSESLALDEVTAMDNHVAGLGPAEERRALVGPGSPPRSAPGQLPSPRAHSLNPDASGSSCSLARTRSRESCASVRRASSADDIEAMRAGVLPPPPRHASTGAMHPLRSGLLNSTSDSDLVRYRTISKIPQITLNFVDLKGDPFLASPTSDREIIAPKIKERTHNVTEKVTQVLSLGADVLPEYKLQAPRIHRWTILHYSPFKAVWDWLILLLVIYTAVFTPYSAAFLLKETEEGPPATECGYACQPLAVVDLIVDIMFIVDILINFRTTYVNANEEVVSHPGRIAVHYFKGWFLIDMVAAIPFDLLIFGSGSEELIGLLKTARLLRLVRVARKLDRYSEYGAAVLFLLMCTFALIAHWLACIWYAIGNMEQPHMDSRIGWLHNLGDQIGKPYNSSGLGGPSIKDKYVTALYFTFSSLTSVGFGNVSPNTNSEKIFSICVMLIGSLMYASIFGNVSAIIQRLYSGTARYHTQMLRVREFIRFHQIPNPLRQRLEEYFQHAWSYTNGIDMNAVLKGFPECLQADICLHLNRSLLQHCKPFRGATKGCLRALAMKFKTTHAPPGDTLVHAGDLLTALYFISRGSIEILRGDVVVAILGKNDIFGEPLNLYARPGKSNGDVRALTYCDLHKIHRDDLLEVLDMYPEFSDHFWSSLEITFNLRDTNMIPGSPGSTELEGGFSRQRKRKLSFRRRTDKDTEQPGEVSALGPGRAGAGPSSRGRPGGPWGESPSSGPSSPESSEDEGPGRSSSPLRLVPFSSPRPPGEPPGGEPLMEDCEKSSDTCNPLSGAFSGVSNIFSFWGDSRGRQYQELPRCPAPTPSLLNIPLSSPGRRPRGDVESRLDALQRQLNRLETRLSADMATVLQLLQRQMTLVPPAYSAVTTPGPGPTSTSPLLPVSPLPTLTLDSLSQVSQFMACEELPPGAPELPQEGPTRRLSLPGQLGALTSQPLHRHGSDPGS
`O=C1c2ccc(Br)cc2C(=O)N1c1ccc(Cl)cn1`: the “hERG current change (%, negative = inhibition) at 1uM” value was found to be 10.9%.

With `Cn1ncc([N+](=O)[O-])c1C(=O)Nc1ccc2c(c1)OCCO2`, the “hERG current change (%, negative = inhibition) at 1uM” value is listed as 12.7%.

`CCN(CC)S(=O)(=O)c1cccc(C(=O)N/N=C/c2ccc(N3CCOCC3)cc2)c1`: the “hERG current change (%, negative = inhibition) at 1uM” value is given as 17.1%.

On to `O=C(NCc1ccc(F)cc1)C(=O)NCC1OCCN1S(=O)(=O)c1ccc2c(c1)OCCO2` (centres unmarked), for which the “hERG current change (%, negative = inhibition) at 1uM” value was 6.09%.

As for `O=C(c1ccccc1)N1CCC(c2nc3c(nnn3Cc3ccco3)c(=O)[nH]2)CC1`, the “hERG current change (%, negative = inhibition) at 1uM” value is listed as 0.867%.

Regarding `COC(=O)C(C)n1cnc2c(nnn2-c2cccc(Cl)c2)c1=O` (centres unmarked), the “hERG current change (%, negative = inhibition) at 1uM” value was -3.7%.

In the case of `Cc1cc(C)c(NC2=NCCCS2)c(C)c1.Cl`, the “hERG current change (%, negative = inhibition) at 1uM” value came out at 10.8%.

For `Cc1oc2cc3oc(=O)c(CCC(=O)NCc4ccccn4)c(C)c3cc2c1C`, the “hERG current change (%, negative = inhibition) at 1uM” value came to 9.09%.

Regarding `CCOC(=O)C(NS(=O)(=O)c1ccc(C)cc1)(C(F)(F)F)P(=O)(OCC(C)C)OCC(C)C` (centres unmarked), the “hERG current change (%, negative = inhibition) at 1uM” value was 8.98%.

Turning to `CCCCCC1CC(=O)N(Cc2ccc(Cl)cc2)C(=O)N1` (centres unmarked), the “hERG current change (%, negative = inhibition) at 1uM” value is recorded as 4.45%.

As for `COc1ccc(C2CN=NC23CCc2ccccc2C3=O)cc1` (centres unmarked), the “hERG current change (%, negative = inhibition) at 1uM” value came out at 6.62%.

As for `COc1cccc(CNC(=O)Cn2ccc3cc(S(=O)(=O)N4CCCC4)ccc32)c1OC`, the “hERG current change (%, negative = inhibition) at 1uM” value is on record as 26.1%.

For `COCCCNCCOCCOc1ccc(Cl)cc1C(C)(C)C.O=C(O)C(=O)O`, the “hERG current change (%, negative = inhibition) at 1uM” value is recorded as -7.81%.

Regarding `Cc1c(NC(=O)c2ccc(Br)s2)c(=O)n(-c2ccccc2)n1C`, the “hERG current change (%, negative = inhibition) at 1uM” value is 16.5%.

Regarding `COc1ccc(CNCCC(c2ccc(F)cc2)c2ccc(OC)cc2)cc1` (centres unmarked), the “hERG current change (%, negative = inhibition) at 1uM” value is reported as -35.6%.

`COc1cccc(/C(C)=N/NC(=O)c2cc(-c3cccnc3)nc3ccccc23)c1`: the “hERG current change (%, negative = inhibition) at 1uM” value was -0.418%.

Turning to `Cc1nc(N2CCOCC2)c(C#N)c2c1COC(C)(C)C2`, the “hERG current change (%, negative = inhibition) at 1uM” value was determined as 7.52%.

`COc1ccc(CNC(=O)C(OC(=O)c2cccs2)C(C)C)cc1` (centres unmarked): the “hERG current change (%, negative = inhibition) at 1uM” value was 8.66%.

On to `Cc1n[nH]c(C)c1S(=O)(=O)NCCc1ccc(Cl)cc1`, for which the “hERG current change (%, negative = inhibition) at 1uM” value is 11%.

`CCCCNC(=O)N1CCCN(c2ccc(C#N)cn2)CC1`: the “hERG current change (%, negative = inhibition) at 1uM” value is -11.6%.

For the molecule `CCC(NC(=O)CCc1c(C)c2cc3c(C)c(C)oc3cc2oc1=O)C(=O)N[C@@H](Cc1ccccc1)C(=O)O` (some centres unmarked), the “hERG current change (%, negative = inhibition) at 1uM” value was 14.7%.

`CN(Cc1ncc[nH]1)Cc1cn(-c2ccccc2)nc1-c1ccc2c(c1)OCO2`: the “hERG current change (%, negative = inhibition) at 1uM” value is 5.75%.

Turning to `Cc1ccc(CCN=c2c([N+](=O)[O-])nn(-c3ccccc3)n2O)cc1`, the “hERG current change (%, negative = inhibition) at 1uM” value amounted to 9.39%.

For `O=C1C=C(c2ccc3ccccc3c2)C[C@@H](c2ccc(F)cc2)C1`, the “hERG current change (%, negative = inhibition) at 1uM” value is given as -0.483%.

As for `CCOc1ccc(-c2nc(N)ncc2-c2ccc(Cl)cc2)c(O)c1`, the “hERG current change (%, negative = inhibition) at 1uM” value was found to be 0.835%.

For the molecule `COc1ccc(CNC(=O)Cn2cncn2)cc1OC`, the “hERG current change (%, negative = inhibition) at 1uM” value is -12.7%.

With `CCc1ccc(-c2cc(C)no2)cc1S(=O)(=O)N1CCN(c2ccccc2F)CC1`, the “hERG current change (%, negative = inhibition) at 1uM” value came out at 14.8%.

With `c1ccc2c(c1)CCCN2Cc1nnnn1C1CCCC1`, the “hERG current change (%, negative = inhibition) at 1uM” value is 1.99%.

In the case of `O=C(Nc1c(-c2ccccc2)nc2ccccn12)c1ccccc1`, the “hERG current change (%, negative = inhibition) at 1uM” value is 12.6%.

As for `Cc1nn2c(=O)cc(CSCC(=O)Nc3ccccc3F)nc2s1`, the “hERG current change (%, negative = inhibition) at 1uM” value was determined as 11.6%.

As for `CC(C)COc1cccc(C(=O)N(CC(=O)Nc2ccccc2C(F)(F)F)Cc2ccco2)c1`, the “hERG current change (%, negative = inhibition) at 1uM” value is given as 13.7%.

On to `O=C(c1ccco1)N(Cc1ccco1)Cc1cc2ccccc2[nH]c1=O`, for which the “hERG current change (%, negative = inhibition) at 1uM” value is recorded as 3.63%.

Turning to `CCC(C)[C@H](NC(=O)NCc1ccc(OC)c(OC)c1)C(=O)O` (some centres unmarked), the “hERG current change (%, negative = inhibition) at 1uM” value stood at 3.45%.

For the molecule `COc1ccc(NC2=C(Cl)C(=O)N(c3ccccc3)C2=O)c(OC)c1`, the “hERG current change (%, negative = inhibition) at 1uM” value was 14.3%.

For the molecule `CC(=O)c1c(C)[nH]c(C(=O)Nc2ccc(C)cn2)c1C`, the “hERG current change (%, negative = inhibition) at 1uM” value is 6.66%.

For `CCC(C)N(C(=O)CSc1nnc(-c2ccco2)n1C)C1CCS(=O)(=O)C1` (centres unmarked), the “hERG current change (%, negative = inhibition) at 1uM” value is on record as -6.49%.

For the molecule `Cc1csc(CN(C)C(=O)CC2C(=O)NCCN2Cc2ccc(F)c(F)c2)n1` (centres unmarked), the “hERG current change (%, negative = inhibition) at 1uM” value was 14.8%.

On to `Cc1ccc(S(=O)(=O)NCC(=O)OCC(=O)Nc2ncc(Cl)cc2Cl)cc1`, for which the “hERG current change (%, negative = inhibition) at 1uM” value came out at 19.2%.

As for `CCCC(=O)Nc1ccc(C(=O)NN2C(=O)c3ccccc3C2=O)cc1`, the “hERG current change (%, negative = inhibition) at 1uM” value is given as 7.66%.

Take `Cc1ccc(SC(C)C(=O)NCc2ccc(F)cc2)cc1` (centres unmarked): the “hERG current change (%, negative = inhibition) at 1uM” value amounted to 4.04%.

Take `CCCCCCNS(=O)(=O)c1ccc(Cl)s1`: the “hERG current change (%, negative = inhibition) at 1uM” value is given as -3.54%.

Take `O=c1c2ccccc2[nH]c(=S)n1CCN1CCc2ccccc2C1`: the “hERG current change (%, negative = inhibition) at 1uM” value came out at 1.82%.

Regarding `COc1ccc(-c2cc(C)no2)cc1S(=O)(=O)NCc1ccc(OC(C)C)cc1`, the “hERG current change (%, negative = inhibition) at 1uM” value is 10.6%.

Consider `CCCC(=O)C1=C(N2CCCCC2)CC(C)(C)C(C(=O)OC)C1=O` (centres unmarked), for which the “hERG current change (%, negative = inhibition) at 1uM” value is reported as 16.3%.
